Measured values from PMC4336329 (PLoS ONE, 2015).
In all, about 310,000 compounds went through this assay and about 14,000 (4.5%) showed an effect of 50% or more. The effect is printed as a negative number. The list shows a part of the results.

What follows are compounds tested against human ether-à-go-go-related gene (hERG) potassium channel (human, UniProt Q12809) (assay: primary screen, population patch clamp on CHO cells stably expressing hERG).
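Also: peak tail current of the secondary pulse compared with the same well before compound.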

Chain of human ether-à-go-go-related gene (hERG) potassium channel (Q12809 whole entry, looked up): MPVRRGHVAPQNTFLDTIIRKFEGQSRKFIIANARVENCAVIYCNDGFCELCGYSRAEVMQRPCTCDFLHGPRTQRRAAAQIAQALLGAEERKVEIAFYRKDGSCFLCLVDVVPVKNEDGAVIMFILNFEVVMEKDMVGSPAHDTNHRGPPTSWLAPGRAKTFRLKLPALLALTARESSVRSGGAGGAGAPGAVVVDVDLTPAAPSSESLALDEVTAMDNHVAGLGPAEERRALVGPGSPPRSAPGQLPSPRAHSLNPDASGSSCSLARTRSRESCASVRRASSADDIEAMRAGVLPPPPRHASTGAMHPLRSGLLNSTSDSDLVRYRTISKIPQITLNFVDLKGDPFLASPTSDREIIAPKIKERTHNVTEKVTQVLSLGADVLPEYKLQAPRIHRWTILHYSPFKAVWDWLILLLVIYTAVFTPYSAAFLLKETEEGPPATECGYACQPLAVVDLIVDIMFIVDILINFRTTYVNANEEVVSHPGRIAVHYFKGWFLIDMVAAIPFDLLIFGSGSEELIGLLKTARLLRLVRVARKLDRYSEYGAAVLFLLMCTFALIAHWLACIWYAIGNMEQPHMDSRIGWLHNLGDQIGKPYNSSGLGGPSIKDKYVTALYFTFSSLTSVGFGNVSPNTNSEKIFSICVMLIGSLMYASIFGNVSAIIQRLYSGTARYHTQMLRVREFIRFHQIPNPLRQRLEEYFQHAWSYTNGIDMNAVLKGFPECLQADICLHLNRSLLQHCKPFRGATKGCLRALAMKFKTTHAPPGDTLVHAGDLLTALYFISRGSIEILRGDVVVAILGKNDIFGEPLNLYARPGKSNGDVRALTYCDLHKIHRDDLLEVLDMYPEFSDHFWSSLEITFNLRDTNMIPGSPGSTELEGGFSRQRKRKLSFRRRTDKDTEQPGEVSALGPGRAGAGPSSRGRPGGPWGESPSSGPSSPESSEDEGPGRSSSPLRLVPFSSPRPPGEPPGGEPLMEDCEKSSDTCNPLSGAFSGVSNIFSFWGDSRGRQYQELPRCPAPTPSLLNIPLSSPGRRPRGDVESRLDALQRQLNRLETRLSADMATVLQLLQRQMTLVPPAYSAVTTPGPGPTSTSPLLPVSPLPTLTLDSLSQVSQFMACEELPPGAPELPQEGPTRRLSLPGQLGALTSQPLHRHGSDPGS

SMILES | hERG current change (%, negative = inhibition) at 10uM [%]
Cc1ccc(C(=O)c2cc([N+](=O)[O-])ccc2N2CCCCC2)cc1C | 6.24
CC(C)(C)NC(=O)C(=O)NCCC1=CCCCC1 | 1.45
Cc1ccc(C(=O)Nc2ccc3ccccc3c2)cc1 | 13.3
Cc1ccc2[nH]c(C(=O)O)c(NC(=O)c3ccccc3[N+](=O)[O-])c2c1 | -1.51
O=C(NCc1ccncc1)c1ccc(S(=O)(=O)Nc2ccccc2)cc1 | -12.8
COc1cccc2cc(C(=O)NCc3ccc(Cl)cc3)c(=N)oc12 | 15.6
Cc1cccc(OCc2nnc(SCC(=O)N3c4ccccc4Sc4ccc(Cl)cc43)o2)c1 | 5.19
Cc1ccc2cccc(Oc3nnnn3-c3ccccc3)c2n1 | -6.46
CCCNC(=O)Cn1cc(S(=O)(=O)N2CCCC2)c(S(=O)(=O)N2CCCC2)c1 | 13.5
Cn1c(C(C)(O)C(O)c2ccccc2)nc2ccccc21 (stereo not shown) | -34.6
O=C(C[n+]1cccc2ccccc21)c1ccc(NC(=O)c2ccccc2)cc1.[Br-] | 8.45
O=C(CN1C(=O)C2CC=CCC2C1=O)Nc1ccc(F)cc1F (stereo not shown) | -2.27
COc1ccc(-n2nc(C(=O)NCC(=O)NCCCN3CC(C)CC(C)C3)c3ccccc3c2=O)cc1OC (stereo not shown) | -34
Cc1c(-c2ccccc2)nc(N)c(C#N)c1-c1cccs1 | -20.6
CNC(=O)CN1C(=O)c2ccccc2S1(=O)=O | 11.4
O=C1CCc2cc(S(=O)(=O)N3CCN(C(=O)c4ccco4)CC3)ccc2N1 | -37.2
CC(=O)C(Sc1ccc2nnc(-c3cccnc3)n2n1)C(C)=O | -2.29
COc1ccc(N2C(=O)[C@@H]3[C@H](C2=O)[C@H]2c4ccccc4C=CN2[C@@H]3C(=O)Nc2ccccc2)cc1 | -10.5
CCOC(=O)CSc1nnc(CNC(=O)c2cccs2)n1CCc1ccccc1 | -28.1
CC1(C)CC(=O)C2=C(C1)Nc1ccccc1NC2c1ccc(F)cc1 (stereo not shown) | 5.79
COCCn1c(SCc2nnc(-c3ccc(OC)c(OC)c3)o2)nnc1-c1ccncc1 | 1.42
Cc1ccccc1N/C(=C(/C(Cl)=C(Cl)Cl)[N+](=O)[O-])n1nnc2ccccc21 | -13.6

SMILES | hERG current change (%, negative = inhibition) at 10uM [%]
CCC(=O)/C=C1\Sc2ccccc2N1CC | -3.72
CCCN(C(=O)COC(=O)CCOc1ccccc1C)c1c(N)n(Cc2ccccc2)c(=O)[nH]c1=O | -2.26
CCCNS(=O)(=O)c1ccc(CCC(=O)N2CCN(c3ccc(OC)cc3)CC2)cc1 | -22.1
OCCN1CCN(CC#CCC(c2ccccc2)c2ccccc2)CC1 | -22.9
CN(CC#CC(O)(c1ccccc1)c1ccccc1)C(C)(C)C | -69
COCc1cc(C)nc2sc(C(=O)N3CCCC3)c(N)c12 | 2.89
COc1ccc(-n2nc3ccc(NS(C)(=O)=O)cc3n2)cc1Cl | -8.42
COCCNC(=O)Cn1cnc([N+](=O)[O-])n1 | 6.93
CC(Cc1ccccn1)NC(=O)c1ccc(OC2CCN(Cc3ccccn3)CC2)cc1 (stereo not shown) | 11.2
CCN1CCN(c2ccc(S(=O)(=O)N3CCOCC3)cc2NC(=O)COc2ccc(F)cc2Cl)CC1 | -24.4
COCCN(C(=S)Nc1c(C)cccc1C)C(C)c1cccnc1 (stereo not shown) | -28.2
CCOC(=O)Cn1nc(NC(=O)c2cc(OC)cc(OC)c2)cc1C | 2.85
CCS(=O)(=O)N1CCN=C1SCc1ccccc1 | 14.8
O=[N+]([O-])/C(=C\Nc1ccccc1Cl)S(=O)(=O)c1ccccc1 | 7.65
Clc1ccc(OCCN2CCOCC2)cc1 | 17
CCNC(=O)c1sc(-c2ccccc2)nc1C | -6.56
Cc1ccc(C(=O)Nc2c(C(=O)NCc3ccco3)cnn2-c2ccccc2)cc1 | -29
CC(C)CN(C(=O)CN1CCN(S(=O)(=O)c2ccccc2)CC1)c1c(N)n(CC(C)C)c(=O)[nH]c1=O | -8.48
O=C(NC(Cc1ccccc1)C(=O)O)/C(=C\c1ccccc1F)NC(=O)c1ccccc1 (stereo not shown) | 24.2
Cl.Nc1nc(N2CCN(C(=O)c3ccco3)CC2)nc2ccc(Br)cc12 | -59.5
CC(C)c1ccc(N2C(=NC(=O)C3CCCO3)SC3CS(=O)(=O)CC32)cc1 (stereo not shown) | -9.87
COCCCNC(=O)C1=CCN(S(=O)(=O)c2ccc(OC)cc2)CC1 | 9.69

SMILES | hERG current change (%, negative = inhibition) at 10uM [%]
Cc1ccc(C(=O)Nc2nc(-c3ccc(F)cc3)cs2)o1 | -28.4
O=C1CCCCC1Sc1nnc(Cc2cccs2)n1CCc1ccccc1 (stereo not shown) | -30.9
O=C(NCCCN1CCOCC1)c1ccc(S(=O)(=O)Nc2cccc(C(F)(F)F)c2)cc1 | -12.8
O=S(=O)(NCCOCC(F)(F)F)c1ccc2oc3ccccc3c2c1 | 3.1
Cc1cc(C)cc(NC(=S)N=Nc2c(O)n(C)c3ccc(S(=O)(=O)N4CCOCC4)cc23)c1 | 1.36
COc1ccc(NC(=O)COc2nc(N(C)C)nc(N(C)C)n2)cc1 | 5.22
CCSC1=NN2CCS(=O)(=O)N=C2S1 | 39.8
CCOC(=O)N1CCN=C1SCc1ccc(C(F)(F)F)cc1 | 2.02
Cn1c(=O)oc2cc(S(=O)(=O)N3CCC(C(=O)N4CCc5ccccc5C4)CC3)ccc21 | 1.3
Cc1ccsc1/C=N/NC(=O)c1ccc(-n2cccc2)cc1 | 10.2
O=C(COC(=O)COc1ccc(Cl)cc1)NC1CCCCC1 | 14.3
O=C(CN1C(=O)c2cccc3cccc1c23)Nc1cccnc1 | -7.98
OC(c1ccccn1)(c1ccccn1)c1ccccn1 | 18.3
CCOC(=O)c1c(C)[nH]c(C(=O)N2CCCC(C(=O)c3cccc(OC)c3)C2)c1C (stereo not shown) | -8.55
Cn1nccc1C(=O)N1CCN(C23CC4CC(CC(C4)C2)C3)CC1 | -4.65
Fc1ccc2nc(Nc3nc4c(F)cccc4s3)sc2c1 | 6.24
O=S(=O)(c1ccccc1Cl)N1CCCC1c1nc(-c2ccccc2Cl)no1 (stereo not shown) | 0.166
C[C@]12CCC(=O)CC1CCC1C2CC[C@@]2(C)C1CC[C@@]21CCO1 (stereo partly shown) | 7.65
CNC(=S)N1CCN(c2c(F)cc3c(=O)c(C(=O)O)cn(C4CC4)c3c2OC)CC1C (stereo not shown) | 5.74
O=C(O)CCc1ccc(-c2ccc(Cl)cc2)n1Cc1ccco1 | 11.7
CCOC(=O)c1cccc(NC(=O)c2cc3ccccc3o2)c1 | 1.39
NS(=O)(=O)c1ccc(N2N=C(c3ccccc3)CC2c2cccc(F)c2)cc1 (stereo not shown) | 0.467

SMILES | hERG current change (%, negative = inhibition) at 10uM [%]
Cn1c(=O)[nH]c(=O)c2c1nc(N1CCNCC1)n2Cc1ccccc1 | -10.6
COC(=O)c1cc(C(=O)N2CCOCC2)cc([N+](=O)[O-])c1 | 21.7
O=C(c1ccc([N+](=O)[O-])s1)N1CCc2ccccc2C1 | 13
COc1ccc(-c2nnc(SC(=O)N3c4ccccc4Sc4ccccc43)o2)cc1 | 18.3
COC(=O)CC1C(=O)NCCN1C(=O)c1sc2ccccc2c1Cl (stereo not shown) | 6.87
O=C(NCCCN1CCOCC1)c1onc(CSc2ccc(F)c(F)c2)c1C(=O)NCCCN1CCOCC1 | -21.2
NC(=O)c1ccc(NC(=O)CCC(=O)N2CCN(S(=O)(=O)c3ccc(Cl)cc3)CC2)cc1 | 9.22
Cc1cc(OCC(=O)OCC(=O)N(C)Cc2ccccc2C)ccc1Cl | 7.91
COc1ccc(S(=O)(=O)NC2(C(F)(F)F)NC(=O)N(CCc3ccccc3)C2=O)cc1 (stereo not shown) | 13.3
COc1ccccc1C(=O)NCC1CCN(c2ccc(S(=O)(=O)N3CCOCC3)cc2)CC1 | -47.1
Cc1nn(Cc2ccccc2)c(C)c1CNC(=O)[C@H](C)N=C1NS(=O)(=O)c2ccccc21 | 2.59
COc1ccc(-c2nc(N3CCCC3)[nH]c(=O)c2C#N)cc1 | 11.9
CCCc1nn2c(=O)cc(COc3cccc(NC(=O)c4ccco4)c3)nc2s1 | -12.5
S=c1[nH]nc(CSc2nc3ccccc3s2)n1Cc1ccccc1 | 11.9
CCOc1ccccc1NC(=S)NC(=O)CCCOc1ccc(Cl)cc1Cl | -2.01
COc1ccc(-c2cn(-c3ccc(C)cc3)c(=O)n2CC(=O)Nc2ccc(OC)cc2OC)cc1 | -7.1
NC(=O)CSc1nc(C23CC4CC(CC(C4)C2)C3)nc2ccccc12 | -25.3
NC1=NC(c2cn[nH]c2-c2cccc(F)c2)n2c(nc3ccccc32)N1 (stereo not shown) | 3.61
CC1CCN(c2ccccc2NC(=O)c2ccc([N+](=O)[O-])o2)CC1 | 25
